Paper PMC9911399, “Two distinct binding modes provide the RNA-binding protein RbFox with extraordinary sequence specificity”
Residue numbers refer to the chain shown, from its start. This is one part of the list.

T1: RBFOX1 RRM RbFoxmut (Fox-RRM*) (Homo sapiens, UniProt Q9NWB1 109-208, R118D;E147R;N151S;E152T)
T1 sequence: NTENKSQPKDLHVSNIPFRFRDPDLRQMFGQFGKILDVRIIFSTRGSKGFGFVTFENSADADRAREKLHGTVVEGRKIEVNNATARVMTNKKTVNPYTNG

B1: ACGCCUU (DNA:RNA)
RNA: GGGAGACCGGAAUUCAGAUUGUCCACGCCUUUUAAAUCCCGUCGUAGCCACCA
DNA 1: CAATCTGAATTCCGGTCTCCC
DNA 2: TGGTGGCTACGACGGGATT
B2: GGUUAUU (DNA:RNA)
RNA: B1 RNA with A25G, C26G, G27U, C28U, C29A
DNA 1: CAATCTGAATTCCGGTCTCCC
DNA 2: TGGTGGCTACGACGGGATT
B3: CUUCCAC (DNA:RNA)
RNA: B1 RNA with A25C, C26U, G27U, U30A, U31C
DNA 1: CAATCTGAATTCCGGTCTCCC
DNA 2: TGGTGGCTACGACGGGATT
B4: CUCUCGC (DNA:RNA)
RNA: B1 RNA with A25C, C26U, G27C, C28U, U30G, U31C
DNA 1: CAATCTGAATTCCGGTCTCCC
DNA 2: TGGTGGCTACGACGGGATT
B5: CAUUAUG (DNA:RNA)
RNA: B1 RNA with A25C, C26A, G27U, C28U, C29A, U31G
DNA 1: CAATCTGAATTCCGGTCTCCC
DNA 2: TGGTGGCTACGACGGGATT
B6: UGUGGGC (DNA:RNA)
RNA: GGGAGACCGGAAUUCAGAUUGUCCUGUGGGCUUAAAUCCCGUCGUAGCCACCA
DNA 1: CAATCTGAATTCCGGTCTCCC
DNA 2: TGGTGGCTACGACGGGATT
B7: UAGACCG (DNA:RNA)
RNA: B1 RNA with A25U, C26A, C28A, U30C, U31G
DNA 1: CAATCTGAATTCCGGTCTCCC
DNA 2: TGGTGGCTACGACGGGATT
B8: CAACGUG (DNA:RNA)
RNA: B1 RNA with A25C, C26A, G27A, C29G, U31G
DNA 1: CAATCTGAATTCCGGTCTCCC
DNA 2: TGGTGGCTACGACGGGATT
B9: UGAUUCU (DNA:RNA)
RNA: B6 RNA with U27A, G28U, G29U, G30C, C31U
DNA 1: CAATCTGAATTCCGGTCTCCC
DNA 2: TGGTGGCTACGACGGGATT
B10: GUGGUAA (DNA:RNA)
RNA: B1 RNA with A25G, C26U, C28G, C29U, U30A, U31A
DNA 1: CAATCTGAATTCCGGTCTCCC
DNA 2: TGGTGGCTACGACGGGATT
B11: ACAGUCA (DNA:RNA)
RNA: B1 RNA with G27A, C28G, C29U, U30C, U31A
DNA 1: CAATCTGAATTCCGGTCTCCC
DNA 2: TGGTGGCTACGACGGGATT
B12: AGGCUAG (DNA:RNA)
RNA: B1 RNA with C26G, C29U, U30A, U31G
DNA 1: CAATCTGAATTCCGGTCTCCC
DNA 2: TGGTGGCTACGACGGGATT
B13: GUCACCC (DNA:RNA)
RNA: B1 RNA with A25G, C26U, G27C, C28A, U30C, U31C
DNA 1: CAATCTGAATTCCGGTCTCCC
DNA 2: TGGTGGCTACGACGGGATT
B14: CAGAGAG (DNA:RNA)
RNA: B1 RNA with A25C, C26A, C28A, C29G, U30A, U31G
DNA 1: CAATCTGAATTCCGGTCTCCC
DNA 2: TGGTGGCTACGACGGGATT
B15: CUCCUAA (DNA:RNA)
RNA: B1 RNA with A25C, C26U, G27C, C29U, U30A, U31A
DNA 1: CAATCTGAATTCCGGTCTCCC
DNA 2: TGGTGGCTACGACGGGATT
B16: UCACGAA (DNA:RNA)
RNA: B1 RNA with A25U, G27A, C29G, U30A, U31A
DNA 1: CAATCTGAATTCCGGTCTCCC
DNA 2: TGGTGGCTACGACGGGATT
B17: GUUUAAC (DNA:RNA)
RNA: B6 RNA with U25G, G26U, G28U, G29A, G30A
DNA 1: CAATCTGAATTCCGGTCTCCC
DNA 2: TGGTGGCTACGACGGGATT
B18: CAACUGA (DNA:RNA)
RNA: B1 RNA with A25C, C26A, G27A, C29U, U30G, U31A
DNA 1: CAATCTGAATTCCGGTCTCCC
DNA 2: TGGTGGCTACGACGGGATT
B19: AUGCCCU (DNA:RNA)
RNA: B1 RNA with C26U, U30C
DNA 1: CAATCTGAATTCCGGTCTCCC
DNA 2: TGGTGGCTACGACGGGATT
B20: GCUAUUG (DNA:RNA)
RNA: B1 RNA with A25G, G27U, C28A, C29U, U31G
DNA 1: CAATCTGAATTCCGGTCTCCC
DNA 2: TGGTGGCTACGACGGGATT
B21: CCAGGAG (DNA:RNA)
RNA: B6 RNA with U25C, G26C, U27A, G30A, C31G
DNA 1: CAATCTGAATTCCGGTCTCCC
DNA 2: TGGTGGCTACGACGGGATT
B22: CGCACGA (DNA:RNA)
RNA: B6 RNA with U25C, U27C, G28A, G29C, C31A
DNA 1: CAATCTGAATTCCGGTCTCCC
DNA 2: TGGTGGCTACGACGGGATT
B23: UAGGACG (DNA:RNA)
RNA: B6 RNA with G26A, U27G, G29A, G30C, C31G
DNA 1: CAATCTGAATTCCGGTCTCCC
DNA 2: TGGTGGCTACGACGGGATT
B24: UACGUUG (DNA:RNA)
RNA: B6 RNA with G26A, U27C, G29U, G30U, C31G
DNA 1: CAATCTGAATTCCGGTCTCCC
DNA 2: TGGTGGCTACGACGGGATT
B25: CGUUGCA (DNA:RNA)
RNA: B6 RNA with U25C, G28U, G30C, C31A
DNA 1: CAATCTGAATTCCGGTCTCCC
DNA 2: TGGTGGCTACGACGGGATT
B26: AAACCAA (DNA:RNA)
RNA: B1 RNA with C26A, G27A, U30A, U31A
DNA 1: CAATCTGAATTCCGGTCTCCC
DNA 2: TGGTGGCTACGACGGGATT
B27: CGCUCUU (DNA:RNA)
RNA: B1 RNA with A25C, C26G, G27C, C28U
DNA 1: CAATCTGAATTCCGGTCTCCC
DNA 2: TGGTGGCTACGACGGGATT
B28: UGUGCCU (DNA:RNA)
RNA: B6 RNA with G29C, G30C, C31U
DNA 1: CAATCTGAATTCCGGTCTCCC
DNA 2: TGGTGGCTACGACGGGATT
B29: GACAAAU (DNA:RNA)
RNA: B1 RNA with A25G, C26A, G27C, C28A, C29A, U30A
DNA 1: CAATCTGAATTCCGGTCTCCC
DNA 2: TGGTGGCTACGACGGGATT
B30: GACCGGG (DNA:RNA)
RNA: B6 RNA with U25G, G26A, U27C, G28C, C31G
DNA 1: CAATCTGAATTCCGGTCTCCC
DNA 2: TGGTGGCTACGACGGGATT
B31: UUAACUC (DNA:RNA)
RNA: B1 RNA with A25U, C26U, G27A, C28A, U31C
DNA 1: CAATCTGAATTCCGGTCTCCC
DNA 2: TGGTGGCTACGACGGGATT

target: T1, RBFOX1 RRM RbFoxmut (Fox-RRM*); test: EMSA; HiTS-Eq, 1 nM pool, 10 min; buffer printed only for the single-RNA assays: 10 mM Tris pH 7.5, 150 mM NaCl, 3.4 mM EDTA, 0.001% NP-40, 30 C; conditions: tags: His6 N-terminal (pET28a); label: 5' 32P
Outline: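 These values rest on relative association constants, computed from read-count changes of each RNA species versus the control reaction and normalised to the cognate motif. Reads came from free RNA recovered by 8% native PAGE after purified RbFox RRM (wild type or mutant) at increasing concentrations was equilibrated for 10 min in 50 µL with 1 nM of a 5′-radiolabelled pool with 7 randomized nucleotides and DNA-annealed flanks.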

Row | Binder | binding signal
1 | B1 | 0.0769 KA relative to UGCAUGU
2 | B2 | 0.076 KA relative to UGCAUGU
3 | B3 | 0.0949 KA relative to UGCAUGU
4 | B4 | 0.0846 KA relative to UGCAUGU
5 | B5 | 0.163 KA relative to UGCAUGU
6 | B6 | 0.0948 KA relative to UGCAUGU
7 | B7 | 0.0461 KA relative to UGCAUGU
8 | B8 | 0.115 KA relative to UGCAUGU
9 | B9 | 0.115 KA relative to UGCAUGU
10 | B10 | 0.149 KA relative to UGCAUGU
11 | B11 | 0.0922 KA relative to UGCAUGU
12 | B12 | 0.107 KA relative to UGCAUGU
13 | B13 | 0.0629 KA relative to UGCAUGU
14 | B14 | 0.108 KA relative to UGCAUGU
15 | B15 | 0.0737 KA relative to UGCAUGU
16 | B16 | 0.0781 KA relative to UGCAUGU

Row | Binder | binding signal
17 | B17 | 0.0991 KA relative to UGCAUGU
18 | B18 | 0.0646 KA relative to UGCAUGU
19 | B19 | 0.0993 KA relative to UGCAUGU
20 | B20 | 0.152 KA relative to UGCAUGU
21 | B21 | 0.134 KA relative to UGCAUGU
22 | B22 | 0.23 KA relative to UGCAUGU
23 | B23 | 0.0685 KA relative to UGCAUGU
24 | B24 | 0.0833 KA relative to UGCAUGU
25 | B25 | 0.218 KA relative to UGCAUGU
26 | B26 | 0.0845 KA relative to UGCAUGU
27 | B27 | 0.0761 KA relative to UGCAUGU
28 | B28 | 0.113 KA relative to UGCAUGU
29 | B29 | 0.0678 KA relative to UGCAUGU
30 | B30 | 0.0549 KA relative to UGCAUGU
31 | B31 | 0.0749 KA relative to UGCAUGU
